Assay results as given in PubChem BioAssay AID1963576 (National Center for Advancing Translational Sciences (NCATS), 2024).
Hit rate of the full screen: of about 46,000 compounds, about 60 (0.1%) were called active. Another 3% or so got no clear call; they are omitted. Calls follow the shape of the dose curve; as a rule, active = well fitted inhibition curve with a large enough effect; inconclusive = small, poorly fitted or top-dose-only effect; inactive = no such curve, though single readings can be large or run the other way. The list shows a part of the results.

assay: Primary qHTS assay for Inhibitors of ovarian cancer metastasis using an organotypic tumor microenvironment (TME) model.; also: nearly all actives have a fitted effect of over 65% in size;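 as to activity change, negative = inhibition: plate controls were DMSO wells for no effect and tomatine positive control wells for full effect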; details: SKOV3ip1-GFP adhesion/invasion on 3D omental model, fluorescence; series mostly up to 45.8 µM; activity change, negative = inhibition: at the top concentration
Method in brief: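 qHTS, 4-pt dose (0.36-46 umol/L); SKOV3ip1-GFP, 1,200 cells/well, no FBS; primary omental fibroblast/mesothelial co-culture 48 h pre-grown; 2 h RT + 16 h 37 C; PBS wash, 4% PFA; GFP count 488/509 nm.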

Activity change, negative = inhibition, inactive:
O=C(Nc1ccc(O)cc1)c1cccc(S(=O)(=O)N2CCOCC2)c1 -5.72%, COc1ccc(S(=O)(=O)c2c(SC)nn(Cc3ccccc3C)c2NC(C)=O)cc1 6.37%, COc1ccc(C)cc1NC(=O)c1ccc2c(Cl)c3c(nc2c1)CCC3 -13%, Cn1nc(C(=O)N2CCN(c3ccccc3)CC2)c2c1-c1ccccc1S(=O)(=O)C2 1.35%, COc1cc2c(cc1OC)n(CC(=O)c1ccc(F)cc1)c(=O)n1nc(CCn3nc(C)cc3C)nc21 2.7%, COc1ccc2oc(=O)cc(CN3CCN(c4ccccc4F)CC3)c2c1 7.26%, CCCC(=O)N1c2nc(C(C)C)nn2C2(CCCCC2)[C@@H]2CCCC[C@@H]21 13.9%, COc1cccc(NS(=O)(=O)c2ccc3[nH]cc(C(=O)N(C)C4CCCCC4)c(=O)c3c2)c1 -6.74%, CCCCc1nn2c(=O)cc(COC(=O)c3ccccc3NC(=O)c3ccccc3OC)nc2s1 3.8%, COc1cc(C2CC(=O)Nc3c2c(=O)[nH]c2ncnn32)ccc1O (stereo unspecified) -11.3%, CCCN1CCCc2cc(CN(CCCN3CCOCC3)C(=O)Nc3ccc(CC)cc3)ccc21 -0.789%, Cc1ccc(C)c(NC(=O)Cn2c(=O)n(CCC(=O)NCc3ccc4c(c3)OCO4)c(=O)c3ccccc32)c1 34.8%, CCOC(=O)C1CCCN(C(=O)c2ccc3c(c2)N(Cc2ccccc2)C(=O)c2ccccc2S3=O)C1 (stereo unspecified) -3.53%, Cc1ccc(OCC(=O)Nc2ccc3nn(-c4ccc(Cl)cc4)nc3c2)cc1 -6.6%, CCOC(=O)c1cccc(Nc2ccc3cc(S(=O)(=O)N4CCCCC4)ccc3n2)c1 -0.0681%, O=C(Nc1cccc(Cl)c1)c1csnn1 -10.6%, Cc1nnc(N2CCN(C(=O)Nc3cccc(C(F)(F)F)c3)CC2)c2nn(-c3ccccc3)c(C)c12 2%, Cc1ccc([N+](=O)[O-])cc1S(=O)(=O)N(C)N=Cc1cnc2ccc(Br)cn12 24.3%, Cc1cccc(NC(=O)CN(c2ccc(C(C)C)cc2)S(=O)(=O)c2c(C)nn(C)c2C)c1C -7.12%, Cc1ccc(-n2ncc3c(N4CCN(c5ccccc5)CC4)ncnc32)cc1C -14.9%, COC(=O)c1c(NC(=O)c2cc(=O)c3c(C)cc(C)cc3o2)sc2c1CCCC2 -8.87%, CCOC(=O)N1CCN(C(=O)c2ccc3c(c2)N(Cc2ccccc2F)C(=O)c2ccccc2S3=O)CC1 (stereo unspecified) 4.24%, O=C(c1c2c(nc3ccccc13)C(=O)N(C1CCCCC1)C2)N1CCN(c2ccc(F)cc2)CC1 8.43%, COc1ccc(N2C(=O)CSC23C(=O)N(C)c2ccccc23)cc1Cl (stereo unspecified) -2.77%, CC(=O)N1CCCc2cc(S(=O)(=O)N3CCC(C(=O)N(Cc4ccccc4)C(C)C)CC3)ccc21 6.98%, Cc1ccc(-c2cc(NC(=O)c3ccccc3Cl)on2)cc1 6.42%, c1ccc2[nH]c(-c3cscn3)nc2c1 -2.2%, Cn1cc(-c2ccc3nnc(C(F)(F)c4ccc5ncccc5c4)n3n2)cn1 4.6%, Cc1ccc(S(=O)(=O)c2cn(Cc3cccc(F)c3)c3cc(N4CCCC4)c(F)cc3c2=O)cc1 30.4%, COc1ccc(C)cc1Nc1nc2c(S(=O)(=O)c3cccc(Cl)c3)nnn2c2ccsc12 -2.56%, CCOc1ccc(NC(=O)c2cc3sc(Cl)cc3n2CC)cc1 -14.5%, CCOC(=O)c1c(S(=O)(=O)N2CCCC(C(=O)Nc3ccc(OCC)cc3)C2)c(C)n(C)c1C (stereo unspecified) -0.0065%, CCCCN(CCCC)c1ncnc2c1cnn2-c1cccc(C)c1 -6.74%, COc1ccc(Br)cc1C(=O)Nc1ccc2oc(-c3cccnc3)nc2c1 0.339%, Cc1cc(C)n(C(C)CC(=O)NCc2ccccc2C)n1 (stereo unspecified) -13.3%, CCN1CCN(CCCNC(=O)c2ccc3nc(Cc4ccc(OC)cc4)oc3c2)CC1 -11.7%, O=C(Nc1ccc(C(=O)N2CCN(c3ccc(F)cc3)CC2)cc1)c1nsc2ccccc12 14.2%, CCOc1cc(CNS(=O)(=O)c2ccc3c(c2)CC(=O)N3C)cc(OCC)c1OCC 18.9%, COc1ccc(C2CC(=O)Nc3c2c(=O)nc2c(C)cccn32)cc1OC (stereo unspecified) 12.3%, CCCCC1CCC(C(=O)N2CC(=O)Nc3ccc(F)cc3C2c2ccc(F)cc2)CC1 (stereo unspecified) -7.9%, Cc1ccccc1C(=O)c1cccn1CC(=O)NCc1ccc(Cl)cc1 -3.37%, COc1ccc(OCc2ccc(-c3nc(C#N)c(N4CCN(C)CC4)o3)o2)cc1 -14.3%, COc1ccccc1CNC(=O)Cc1c(C)c2c(cc(C)c3c(C)c(C)oc32)oc1=O -16.4%, CCCC(=O)Nc1ccc2c(c1)nc(CN1CCN(C(=O)OCC)CC1)n2C(C)C -23.5%, COc1ccc(NC(=O)CSc2cn(CC(=O)N3CCCCC3)c3ccccc23)c(OC)c1 -1.72%, CCOC(=O)c1cc2c(=O)n3ccccc3nc2n(CC2CCCO2)c1=NC(=O)c1ccc(C(C)(C)C)cc1 (stereo unspecified) -5.96%, CCn1c2ccccc2c2nnc(N3CCN(c4ccc(F)cc4)CC3)nc21 -10.5%

outcome, inactive:
COc1cccc(CNC(=O)c2ccc(NC(=O)N3CCCCc4ccccc43)cc2)c1, CCCCn1c(=O)c2oc3ccccc3c2n(CC(=O)Nc2cccc(Cl)c2)c1=O, O=c1c2oc3ccccc3c2n(Cc2ccccc2)c(=O)n1Cc1ccc2c(c1)OCO2, NC(=O)c1cc(S(=O)(=O)NCC2CCC(C(=O)Nc3ccc(Cl)cc3)CC2)cs1 (stereo unspecified), CCOC(=O)C1CCN(S(=O)(=O)c2cc(-c3onc(C)c3C)ccc2C)CC1, CCc1ccccc1Nc1cc(C(=O)NCc2ccc(C)cc2)c2ccccc2n1, COCCn1c(C)cc(O)c(C(c2ccccc2)N2CCC(C)CC2)c1=O (stereo unspecified), CCCOc1ccccc1-c1nc(SCC(=O)c2ccccc2)n[nH]1, CC(=O)Nc1ccc(S(=O)(=O)N2CCC(c3ccncc3)CC2)cc1, Cc1ccc2c(CN3CCN(Cc4ccccc4Cl)CC3)cc(=O)oc2c1, COc1ccc(CCNC(=O)CCCn2c(=O)c3cccn3c3cccnc32)cc1OC, CCC1CN(C(=O)NCc2cccc(OC)c2)c2cc(Cl)ccc2O1 (stereo unspecified), CCOc1ccc(CNC(=O)c2ccc(Sc3ccc(Cl)cc3)c(NC(C)=O)c2)cc1, Cc1nc2sc(C(=O)N(C)Cc3ccccc3)c(NC(=O)c3ccccc3)c2c(C)c1Cl
